# Measurements reported in the supplement of paper PMC8728848.
# This is one part of the list.
# B1: AFL (Aspergillus fumigatus), Q4WW81 (protein)
# chain: STPGAQQVLFRTGIAAVNLTNHLRVYFQDVYGSIRESLYEGSWANGTEKNVIGNAKLGSPVAATSKELKHIRVYTLTEGNTLQEFAYDSGTGWYNGGLGGAKFQVAPYSRIAAVFLAGTDALQLRIYAQKPDNTIQEYMWNGDGWKEGTNLGGALPGTGIGATSFRYTDYNGPSIRIWFQTDDLKLVQRAYDPHKGWYPDLVTIFDRAPPRTAIAATSFGAGNSSIYMRIYFVNSDNTIWQVCWDHGKGYHDKGTITPVIQGSEVAIISWGSFANNGPDLRLYFQNGTYISAVSEWVWNRAHGSQLGRSALPPA
# How the values were obtained:
# Assay in all cases: glycan array binding signal (z-score within array); higher = stronger binding
# Settings in all cases: glycan notation: IUPAC condensed, linker removed
# [1] = biological target: Man(a1-2)Man(a1-6)[Man(a1-3)]Man(a1-6)[Man(a1-2)Man(a1-2)Man(a1-3)]Man(b1-4)GlcNAc(b1-4)GlcNAc
# Procedure, shortened: (§1)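 Negative Z-scores can be read as non-binding. The Z-score is calculated within each array and then averaged across arrays of one protein sequence at different concentrations or buffers and across linkers. Arrays, 3228 in all, were curated from the Consortium for Functional Glycomics database and kept only where the protein sequence was available.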
# Man(a1-3)[Man(a1-6)]Man = biological target: Man(a1-3)[Man(a1-6)]Man
# Procedure, shortened: as §1
# [2] = biological target: Man(a1-3)[Man(a1-6)]Man(a1-6)[Man(a1-2)Man(a1-3)]Man(b1-4)GlcNAc(b1-4)GlcNAc
# Procedure, shortened: as §1
# [3] = biological target: Man(a1-3)[Man(a1-6)]Man(a1-6)[Man(a1-3)]Man
# Procedure, shortened: as §1
# [4] = biological target: Man(a1-3)[Man(a1-6)]Man(a1-6)[Man(a1-3)]Man(b1-4)GlcNAc(b1-4)GlcNAc
# Procedure, shortened: as §1
# [5] = biological target: Man(a1-3)[Man(a1-6)]Man(b1-4)GlcNAc(b1-4)GlcNAc
# Procedure, shortened: as §1
# Man(a1-6)Man = biological target: Man(a1-6)Man
# Procedure, shortened: as §1
# Man(b1-4)GlcNAc = biological target: Man(b1-4)GlcNAc
# Procedure, shortened: as §1
# Neu5Ac(a2-3)Gal = biological target: Neu5Ac(a2-3)Gal
# Procedure, shortened: as §1
# [6] = biological target: Neu5Ac(a2-3)Gal(b1-3)GalNAc
# Procedure, shortened: as §1
# [7] = biological target: Neu5Ac(a2-3)Gal(b1-3)GalNAc(b1-3)Gal(a1-4)Gal(b1-4)Glc
# Procedure, shortened: as §1
# [8] = biological target: Neu5Ac(a2-3)Gal(b1-3)GalNAc(b1-4)[Neu5Ac(a2-3)]Gal(b1-4)Glc
# Procedure, shortened: as §1
# [9] = biological target: Neu5Ac(a2-3)Gal(b1-3)GalNAc(b1-4)[Neu5Ac(a2-8)Neu5Ac(a2-3)]Gal(b1-4)Glc
# Procedure, shortened: as §1
# [10] = biological target: Neu5Ac(a2-3)Gal(b1-3)GalNAc6S
# Procedure, shortened: as §1
# [11] = biological target: Neu5Ac(a2-3)Gal(b1-3)GlcNAc
# Procedure, shortened: as §1
# [12] = biological target: Neu5Ac(a2-3)Gal(b1-3)GlcNAc(b1-2)Man(a1-3)[Neu5Ac(a2-3)Gal(b1-3)GlcNAc(b1-2)Man(a1-6)]Man(b1-4)GlcNAc(b1-4)GlcNAc
# Procedure, shortened: as §1
# [13] = biological target: Neu5Ac(a2-3)Gal(b1-3)GlcNAc(b1-3)Gal(b1-3)GlcNAc
# Procedure, shortened: as §1
# [14] = biological target: Neu5Ac(a2-3)Gal(b1-3)GlcNAc(b1-3)Gal(b1-4)GlcNAc
# Procedure, shortened: as §1
# [15] = biological target: Neu5Ac(a2-3)Gal(b1-3)GlcNAc(b1-3)GalNAc
# Procedure, shortened: as §1
# [16] = biological target: Neu5Ac(a2-3)Gal(b1-3)GlcNAc6S
# Procedure, shortened: as §1
# [17] = biological target: Neu5Ac(a2-3)Gal(b1-3)[Fuc(a1-4)]GlcNAc
# Procedure, shortened: as §1
# [18] = biological target: Neu5Ac(a2-3)Gal(b1-3)[Fuc(a1-4)]GlcNAc(b1-3)Gal(b1-3)[Fuc(a1-4)]GlcNAc
# Procedure, shortened: as §1
# [19] = biological target: Neu5Ac(a2-3)Gal(b1-3)[Fuc(a1-4)]GlcNAc(b1-3)Gal(b1-4)[Fuc(a1-3)]GlcNAc
# Procedure, shortened: as §1
# [20] = biological target: Neu5Ac(a2-3)Gal(b1-3)[Neu5Ac(a2-3)Gal(b1-4)]GlcNAc
# Procedure, shortened: as §1
# [21] = biological target: Neu5Ac(a2-3)Gal(b1-3)[Neu5Ac(a2-6)]GalNAc
# Procedure, shortened: as §1
# Neu5Ac(a2-3)Gal(b1-4)Glc = biological target: Neu5Ac(a2-3)Gal(b1-4)Glc
# Procedure, shortened: as §1
# [22] = biological target: Neu5Ac(a2-3)Gal(b1-4)GlcNAc
# Procedure, shortened: as §1
# [23] = biological target: Neu5Ac(a2-3)Gal(b1-4)GlcNAc(b1-2)Man(a1-3)[GlcNAc(b1-2)Man(b1-4)GlcNAc(b1-2)Man(a1-6)]Man(b1-4)GlcNAc(b1-4)GlcNAc
# Procedure, shortened: as §1
# [24] = biological target: Neu5Ac(a2-3)Gal(b1-4)GlcNAc(b1-2)Man(a1-3)[Neu5Ac(a2-6)Gal(b1-4)GlcNAc(b1-2)Man(a1-6)]Man(b1-4)GlcNAc(b1-4)GlcNAc
# Procedure, shortened: as §1
# [25] = biological target: Neu5Ac(a2-3)Gal(b1-4)GlcNAc(b1-3)Gal
# Procedure, shortened: as §1
# [26] = biological target: Neu5Ac(a2-3)Gal(b1-4)GlcNAc(b1-3)Gal(b1-3)GlcNAc
# Procedure, shortened: as §1
# [27] = biological target: Neu5Ac(a2-3)Gal(b1-4)GlcNAc(b1-3)Gal(b1-4)GlcNAc
# Procedure, shortened: as §1
# [28] = biological target: Neu5Ac(a2-3)Gal(b1-4)GlcNAc(b1-3)Gal(b1-4)GlcNAc(b1-3)Gal(b1-4)GlcNAc
# Procedure, shortened: as §1
binder,measurement,setting,value
B1,glycan array binding signal (z-score),[1],-0.376
same,glycan array binding signal (z-score),Man(a1-3)[Man(a1-6)]Man,-0.39
same,glycan array binding signal (z-score),[2],-0.395
same,glycan array binding signal (z-score),[3],-0.39
same,glycan array binding signal (z-score),[4],-0.383
same,glycan array binding signal (z-score),[5],-0.34
same,glycan array binding signal (z-score),Man(a1-6)Man,-0.386
same,glycan array binding signal (z-score),Man(b1-4)GlcNAc,-0.391
same,glycan array binding signal (z-score),Neu5Ac(a2-3)Gal,-0.391
same,glycan array binding signal (z-score),[6],-0.385
same,glycan array binding signal (z-score),[7],-0.385
same,glycan array binding signal (z-score),[8],-0.391
same,glycan array binding signal (z-score),[9],-0.382
same,glycan array binding signal (z-score),[10],-0.387
same,glycan array binding signal (z-score),[11],-0.385
same,glycan array binding signal (z-score),[12],-0.411
same,glycan array binding signal (z-score),[13],-0.389
same,glycan array binding signal (z-score),[14],-0.38
same,glycan array binding signal (z-score),[15],-0.385
same,glycan array binding signal (z-score),[16],-0.392
same,glycan array binding signal (z-score),[17],0.882
same,glycan array binding signal (z-score),[18],0.537
same,glycan array binding signal (z-score),[19],0.527
same,glycan array binding signal (z-score),[20],-0.388
same,glycan array binding signal (z-score),[21],-0.332
same,glycan array binding signal (z-score),Neu5Ac(a2-3)Gal(b1-4)Glc,-0.383
same,glycan array binding signal (z-score),[22],-0.376
same,glycan array binding signal (z-score),[23],-0.387
same,glycan array binding signal (z-score),[24],-0.384
same,glycan array binding signal (z-score),[25],-0.175
same,glycan array binding signal (z-score),[26],-0.385
same,glycan array binding signal (z-score),[27],-0.388
same,glycan array binding signal (z-score),[28],-0.39
